Experimental findings from the supplement of paper PMC3334620 are described below.

Over roughly 33,000 sequences, “E-score (-0.5 to 0.5)” has its median near -0.041; the highest 2% begin near 0.37. This is one part of the list.

The assay concerns the target T1, Ecm22 (UniProt Q05958).
T1 sequence: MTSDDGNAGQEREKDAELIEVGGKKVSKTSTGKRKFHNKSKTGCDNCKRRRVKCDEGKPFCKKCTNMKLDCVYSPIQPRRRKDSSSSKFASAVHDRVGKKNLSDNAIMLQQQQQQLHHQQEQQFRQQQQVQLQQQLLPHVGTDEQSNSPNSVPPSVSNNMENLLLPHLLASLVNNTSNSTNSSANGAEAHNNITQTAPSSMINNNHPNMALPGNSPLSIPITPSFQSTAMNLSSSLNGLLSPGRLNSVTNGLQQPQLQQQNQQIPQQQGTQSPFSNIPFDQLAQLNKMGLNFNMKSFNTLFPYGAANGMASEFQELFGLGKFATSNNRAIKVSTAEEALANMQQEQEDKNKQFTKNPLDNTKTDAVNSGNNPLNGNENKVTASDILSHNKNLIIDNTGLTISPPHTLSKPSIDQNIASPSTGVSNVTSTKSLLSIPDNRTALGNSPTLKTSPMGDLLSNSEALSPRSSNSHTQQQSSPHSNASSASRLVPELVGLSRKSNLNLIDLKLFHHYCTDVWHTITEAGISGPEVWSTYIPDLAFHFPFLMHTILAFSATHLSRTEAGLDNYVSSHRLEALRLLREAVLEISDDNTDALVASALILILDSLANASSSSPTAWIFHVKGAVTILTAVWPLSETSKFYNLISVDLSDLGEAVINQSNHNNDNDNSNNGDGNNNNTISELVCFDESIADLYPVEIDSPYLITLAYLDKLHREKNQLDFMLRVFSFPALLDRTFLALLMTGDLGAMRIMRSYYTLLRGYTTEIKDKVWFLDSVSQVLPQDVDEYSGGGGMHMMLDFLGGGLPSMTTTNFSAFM
Description: PBM E-score (8-mer binding enrichment) (E-score (-0.5 to 0.5)); higher = stronger / more preferred TF binding; most listed sequences are background and not binding sites. The note with it: protein concentration: 200 nM; construct: GST-full length. Put shortly:
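Yeast transcription factors, full-length or as DNA-binding domains, were expressed with a GST tag using PURExpress in vitro transcription/translation. At about 100-200 nM they were applied to universal all-10-mer Agilent arrays, double-stranded by primer extension on fresh or once-stripped slides. Fluorescent anti-GST detected bound protein, and masliner normalised the scans. E-scores for ungapped eight-base words, pooled with reverse complements, came from the Universal PBM Analysis Suite.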
For the sequence GCGTAGAA, the “PBM E-score” value is -0.0103. Next, ACTGTGTG: -0.0829; AACCTAGT: -0.228. Next, ATTTTTAC: 0.182; CTTCTCGA: -0.0882. Next, AAGTGTGT: -0.156; GGAAAGGA: -0.143; GACCTAAC: 0.129. As for AACGCCGG, the “PBM E-score” value is -0.0456. Next, ACGCGATC: 0.235. With ATGCCCAA, the “PBM E-score” value was -0.0485.

As to GAGACACC, the “PBM E-score” value is -0.06.

As for CGAGGACA, the “PBM E-score” value stood at 0.0726.

Take AGTCTGAT: the “PBM E-score” value was -0.119. For the sequence GGCTTCAC, the “PBM E-score” value is -0.171. With GCCGATGA, the “PBM E-score” value is -0.0632.

Regarding ATCTGGTG, the “PBM E-score” value is -0.107.

Consider CATATAGA, for which the “PBM E-score” value turned out to be 0.0615. Next, CCATATAG: -0.00691; TAGGTGGA: -0.245; GGATCATA: -0.18. AAATATAC: the “PBM E-score” value amounted to 0.169. Next, CGTATGGA: 0.383; CGACCAAA: 0.307. Next, GTTCTCCA: 0.0352; AACTAGTT: -0.163. Next, GGCTAACA: 0.0425. Consider ACTCGTAC, for which the “PBM E-score” value is 0.484.

Take ATACCGAC: the “PBM E-score” value worked out at 0.202.

Take ATTAACTA: the “PBM E-score” value came out at 0.0313.

On to CCAACTGG, for which the “PBM E-score” value was -0.0629. Next, ATATACCA: 0.0649; ATTAATGG: 0.14. Next, GCTGAGTA: -0.195; CTAAAAGA: -0.134; AATAACGC: 0.0149.

Regarding GCTTATCA, the “PBM E-score” value is -0.143.

On to ATCCGATC, for which the “PBM E-score” value was 0.192.

Take ACAACATC: the “PBM E-score” value was -0.0933. Next, TATATTGA: -0.0675; CCCTTAAG: -0.0729; AGTCTATC: -0.164. As to CCCCGATA, the “PBM E-score” value was -0.067.

CTCGTGGC: the “PBM E-score” value is -0.196. Next, GGTGAACC: -0.0366. Next, AGTTAGAA: -0.188.

As to CCGGTGTA, the “PBM E-score” value was 0.0643. Next, AACGGCCT: 0.225; CCTAAGTA: 0.0729.

With GAGGAGTA, the “PBM E-score” value is 0.0709.

As for GCAACGTA, the “PBM E-score” value amounted to 0.136. Next, CACACTTA: -0.132; AGGCCTGA: -0.274. Take AGTGGCTG: the “PBM E-score” value was -0.0444.

With CTATGTAA, the “PBM E-score” value is -0.149. Next, ATCGAATG: -0.219; CGATCCAA: 0.0344; AGCACTAT: -0.0613.

CGTCCGCA: the “PBM E-score” value was -0.136. Next, ACGTTTCC: -0.0691; GATGATTA: 0.0553; CGCTCCAA: 0.159. Next, GTTCTAAA: 0.0119; CGGAGTTA: 0.00617.

As for GCCTACAA, the “PBM E-score” value was -0.141. Next, AACACTTG: 0.0595; CCCCGAGA: -0.23; TCGAGGAA: 0.101. Next, ACTGCACG: -0.141. Next, CGCTCGTC: 0.168; CCAAGATC: 0.079. For the sequence ATCTTCCC, the “PBM E-score” value is -0.0919. As for AATGAGCC, the “PBM E-score” value is -0.23. Next, AAATGTCT: -0.00532; GTCAATCA: -0.0528. Next, ACGATGAC: 0.304; CGCGTCCG: -0.0276; GCCCGACA: -0.141. On to AACCGATG, for which the “PBM E-score” value came to 0.171.

Take AACGGTGG: the “PBM E-score” value came to 0.183. Next, CATAAGAG: -0.108; AGAAGCTC: -0.0156; CATGCAGC: -0.17. Next, AGAGAGGG: -0.223; GGAGTGCC: -0.116. Next, AAAGCTGC: -0.0675.
